# Some of the results follow.
# B1: DBA (Dolichos biflorus) (protein)
# chain: ANIQSFSFKNFNSPSFILQGDATVSSGKLQLTKVKENGFPLRFPSGRAFYSSPIQIYDKFTGAVASWATSFTVKISAPSKASFADGIAFALVPVGSEPRRNGGYLGVFDSDVYNNSAQTVAVEFDTLSNSGWDPSMKHIGIDVNSIKSIATVSWDLANGENAEILITYNAATSLLVVSLVHPSRRTSYILSERVDITNELPEYVGVGFSATTGLSEGYIETHDVLSWSFASRLPDDSTAEPLDLARYLVRNVL
# Assays:
# Assay in all cases: glycan array binding signal (z-score within array); higher = stronger binding
# Conditions in all cases: glycan notation: IUPAC condensed, linker removed
# [1] = molecular target: Gal(b1-3)[Fuc(a1-4)]GlcNAc(b1-2)Man(a1-3)[Gal(b1-3)[Fuc(a1-4)]GlcNAc(b1-2)Man(a1-6)]Man(b1-4)GlcNAc(b1-4)[Fuc(a1-6)]GlcNAc
# Method in brief: (§1)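 From the Consortium for Functional Glycomics database, 3228 arrays were curated, keeping only those whose protein sequence was available. Binding is given as a within-array Z-score averaged across arrays sharing a protein sequence and across linkers. Negative Z-scores can be read as non-binding.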
# [2] = molecular target: Gal(b1-3)[Fuc(a1-4)]GlcNAc(b1-3)Gal(b1-3)[Fuc(a1-4)]GlcNAc
# Method in brief: as §1
# [3] = molecular target: Gal(b1-3)[Fuc(a1-4)]GlcNAc(b1-3)Gal(b1-4)GlcNAc
# Method in brief: as §1
# [4] = molecular target: Gal(b1-3)[Fuc(a1-4)]GlcNAc(b1-3)Gal(b1-4)[Fuc(a1-3)]GlcNAc
# Method in brief: as §1
# [5] = molecular target: Gal(b1-3)[Fuc(a1-4)]GlcNAc(b1-6)GalNAc
# Method in brief: as §1
# [6] = molecular target: Gal(b1-3)[GlcNAc(b1-6)]GalNAc
# Method in brief: as §1
# [7] = molecular target: Gal(b1-3)[Neu5Ac(a2-6)]GalNAc
# Method in brief: as §1
# [8] = molecular target: Gal(b1-3)[Neu5Ac(a2-6)]GlcNAc(b1-4)Gal(b1-4)Glc
# Method in brief: as §1
# [9] = molecular target: Gal(b1-3)[Neu5Ac(a2-6)]GlcNAc(b1-6)Gal(b1-4)Glc
# Method in brief: as §1
# [10] = molecular target: Gal(b1-3)[Neu5Ac(b2-6)]GalNAc
# Method in brief: as §1
# [11] = molecular target: Gal(b1-4)Gal
# Method in brief: as §1
# [12] = molecular target: Gal(b1-4)GalNAc(a1-3)[Fuc(a1-2)]Gal(b1-4)GlcNAc
# Method in brief: as §1
# [13] = molecular target: Gal(b1-4)GalNAc(b1-3)[Fuc(a1-2)]Gal(b1-4)GlcNAc
# Method in brief: as §1
# [14] = molecular target: Gal(b1-4)Glc
# Method in brief: as §1
# [15] = molecular target: Gal(b1-4)Glc6S
# Method in brief: as §1
# [16] = molecular target: Gal(b1-4)GlcNAc
# Method in brief: as §1
# [17] = molecular target: Gal(b1-4)GlcNAc(a1-6)Gal(b1-4)GlcNAc
# Method in brief: as §1
# [18] = molecular target: Gal(b1-4)GlcNAc(b1-2)Man
# Method in brief: as §1
# [19] = molecular target: Gal(b1-4)GlcNAc(b1-2)Man(a1-3)Man(b1-4)GlcNAc(b1-4)GlcNAc
# Method in brief: as §1
# [20] = molecular target: Gal(b1-4)GlcNAc(b1-2)Man(a1-3)[Gal(b1-4)GlcNAc(b1-2)Man(a1-6)]Man(b1-4)GlcNAc(b1-4)GlcNAc
# Method in brief: as §1
# [21] = molecular target: Gal(b1-4)GlcNAc(b1-2)Man(a1-3)[Gal(b1-4)GlcNAc(b1-2)Man(a1-6)]Man(b1-4)GlcNAc(b1-4)[Fuc(a1-6)]GlcNAc
# Method in brief: as §1
# [22] = molecular target: Gal(b1-4)GlcNAc(b1-2)Man(a1-3)[Gal(b1-4)GlcNAc(b1-2)Man(a1-6)][Gal(b1-4)GlcNAc(b1-4)]Man(b1-4)GlcNAc(b1-4)[Fuc(a1-6)]GlcNAc
# Method in brief: as §1
# [23] = molecular target: Gal(b1-4)GlcNAc(b1-2)Man(a1-3)[Gal(b1-4)GlcNAc(b1-2)Man(a1-6)][GlcNAc(b1-4)]Man(b1-4)GlcNAc(b1-4)[Fuc(a1-6)]GlcNAc
# Method in brief: as §1
# [24] = molecular target: Gal(b1-4)GlcNAc(b1-2)Man(a1-3)[GlcNAc(b1-2)Man(a1-6)]Man(b1-4)GlcNAc(b1-4)GlcNAc
# Method in brief: as §1
# [25] = molecular target: Gal(b1-4)GlcNAc(b1-2)Man(a1-3)[GlcNAc(b1-4)][Gal(b1-4)GlcNAc(b1-2)Man(a1-6)]Man(b1-4)GlcNAc(b1-4)GlcNAc
# Method in brief: as §1
# [26] = molecular target: Gal(b1-4)GlcNAc(b1-2)Man(a1-3)[Man(a1-6)]Man(b1-4)GlcNAc(b1-4)GlcNAc
# Method in brief: as §1
# [27] = molecular target: Gal(b1-4)GlcNAc(b1-2)Man(a1-6)Man(b1-4)GlcNAc(b1-4)GlcNAc
# Method in brief: as §1
# [28] = molecular target: Gal(b1-4)GlcNAc(b1-2)Man(a1-6)[GlcNAc(b1-2)Man(a1-3)]Man(b1-4)GlcNAc(b1-4)GlcNAc
# Method in brief: as §1
# [29] = molecular target: Gal(b1-4)GlcNAc(b1-2)Man(a1-6)[Man(a1-3)]Man(b1-4)GlcNAc(b1-4)GlcNAc
# Method in brief: as §1
# [30] = molecular target: Gal(b1-4)GlcNAc(b1-2)[Gal(b1-4)GlcNAc(b1-4)]Man(a1-3)[Gal(b1-4)GlcNAc(b1-2)Man(a1-6)]Man(b1-4)GlcNAc(b1-4)GlcNAc
# Method in brief: as §1
# [31] = molecular target: Gal(b1-4)GlcNAc(b1-2)[Gal(b1-4)GlcNAc(b1-4)]Man(a1-3)[Gal(b1-4)GlcNAc(b1-2)[Gal(b1-4)GlcNAc(b1-6)]Man(a1-6)]Man(b1-4)GlcNAc(b1-4)GlcNAc
# Method in brief: as §1
# [32] = molecular target: Gal(b1-4)GlcNAc(b1-2)[Gal(b1-4)GlcNAc(b1-4)]Man(a1-3)[GlcNAc(b1-4)][Gal(b1-4)GlcNAc(b1-2)Man(a1-6)]Man(b1-4)GlcNAc(b1-4)GlcNAc
# Method in brief: as §1
# [33] = molecular target: Gal(b1-4)GlcNAc(b1-2)[Gal(b1-4)GlcNAc(b1-4)]Man(a1-3)[GlcNAc(b1-4)][Gal(b1-4)GlcNAc(b1-2)[Gal(b1-4)GlcNAc(b1-6)]Man(a1-6)]Man(b1-4)GlcNAc(b1-4)GlcNAc
# Method in brief: as §1
# [34] = molecular target: Gal(b1-4)GlcNAc(b1-2)[Gal(b1-4)GlcNAc(b1-6)]Man(a1-6)[Gal(b1-4)GlcNAc(b1-2)Man(a1-3)]Man(b1-4)GlcNAc(b1-4)GlcNAc
# Method in brief: as §1
# [35] = molecular target: Gal(b1-4)GlcNAc(b1-2)[Gal(b1-4)GlcNAc(b1-6)]Man(a1-6)[Gal(b1-4)GlcNAc(b1-2)Man(a1-3)]Man(b1-4)GlcNAc(b1-4)[Fuc(a1-6)]GlcNAc
# Method in brief: as §1
# [36] = molecular target: Gal(b1-4)GlcNAc(b1-2)[Gal(b1-4)GlcNAc(b1-6)]Man(a1-6)[GlcNAc(b1-4)][Gal(b1-4)GlcNAc(b1-2)Man(a1-3)]Man(b1-4)GlcNAc(b1-4)GlcNAc
# Method in brief: as §1
# [37] = molecular target: Gal(b1-4)GlcNAc(b1-2)[Gal(b1-4)GlcNAc(b1-6)]Man(a1-6)[GlcNAc(b1-4)][Gal(b1-4)GlcNAc(b1-2)[Gal(b1-4)GlcNAc(b1-4)]Man(a1-3)]Man(b1-4)GlcNAc(b1-4)[Fuc(a1-6)]GlcNAc
# Method in brief: as §1
# [38] = molecular target: Gal(b1-4)GlcNAc(b1-3)Gal(b1-3)GalNAc
# Method in brief: as §1
binder,measurement,setting,value
B1,glycan array binding signal (z-score),[1],-0.036
same,glycan array binding signal (z-score),[2],-0.109
same,glycan array binding signal (z-score),[3],-0.177
same,glycan array binding signal (z-score),[4],-0.119
same,glycan array binding signal (z-score),[5],-0.136
same,glycan array binding signal (z-score),[6],-0.102
same,glycan array binding signal (z-score),[7],-0.129
same,glycan array binding signal (z-score),[8],-0.136
same,glycan array binding signal (z-score),[9],-0.181
same,glycan array binding signal (z-score),[10],-0.151
same,glycan array binding signal (z-score),[11],-0.173
same,glycan array binding signal (z-score),[12],-0.118
same,glycan array binding signal (z-score),[13],-0.147
same,glycan array binding signal (z-score),[14],-0.123
same,glycan array binding signal (z-score),[15],-0.12
same,glycan array binding signal (z-score),[16],-0.116
same,glycan array binding signal (z-score),[17],-0.124
same,glycan array binding signal (z-score),[18],-0.106
same,glycan array binding signal (z-score),[19],-0.093
same,glycan array binding signal (z-score),[20],-0.143
same,glycan array binding signal (z-score),[21],-0.066
same,glycan array binding signal (z-score),[22],-0.085
same,glycan array binding signal (z-score),[23],-0.157
same,glycan array binding signal (z-score),[24],-0.111
same,glycan array binding signal (z-score),[25],-0.152
same,glycan array binding signal (z-score),[26],-0.109
same,glycan array binding signal (z-score),[27],-0.103
same,glycan array binding signal (z-score),[28],-0.093
same,glycan array binding signal (z-score),[29],-0.145
same,glycan array binding signal (z-score),[30],-0.062
same,glycan array binding signal (z-score),[31],-0.149
same,glycan array binding signal (z-score),[32],-0.103
same,glycan array binding signal (z-score),[33],-0.084
same,glycan array binding signal (z-score),[34],-0.105
same,glycan array binding signal (z-score),[35],-0.096
same,glycan array binding signal (z-score),[36],-0.166
same,glycan array binding signal (z-score),[37],-0.126
same,glycan array binding signal (z-score),[38],-0.086
